# Laboratory results taken from the supplement of paper PMC11417369.
# Some of the results follow.
# Test system: PF3D7_0420300 AP2 domain 1 (GST-tagged)
# Experiment: gcPBM binding intensity (ln(normalized median fluorescence intensity)); higher = stronger DNA binding
# Procedure, shortened: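 The highest Masliner-normalised natural-log median intensity across replicate spots of either probe orientation is reported as binding intensity. GST-tagged P. falciparum DNA-binding domains expressed in E. coli were applied for 1 h to an Agilent 4 × 180k array of primer-extended double-stranded 36-bp intergenic genomic probes plus negative controls, and bound protein was detected with Alexa488 anti-GST antibody and scanned at 488 nm.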
row,Sequence,gcPBM binding intensity (ln)
1,ATAATATTTAGGTGTGCACACAAACATACATATATA [CACACA_site9120],9.95
2,AAAAAATCACAACACACACACACACTAATAAAAAAA [CACACA_site8410],10.2
3,TAAATATTATTATATACATGCACTTACAACTTTTTT [TGCATGCA_site877],9.28
4,AAATCACATAAAACATAATCAAATGAAATATAATCA [CACACA_negctrl_site123],9.31
5,ACTGTAAATTTATTCGGTACACATATAAATAATATT [XGTACX_site7346],9.31
6,ATAATAATAAAGTATGCATGCATATAATATAATATA [TGCATGCA_site796],9.35
7,TTTTTATTGCAATACTTATATTTTTTTATGATTAAA [TGCATGCA_negctrl_site147],9.04
8,ATGATAATTTTTTTCTCACACACAAATATTTTAATC [CACACA_site3665],9.7
9,AAAGATTCTTTGAATTGTACAAATATATTTACTCAC [XGTACX_site8772],9.11
10,CAATAATATATATATTGTACATTTTTTTTTATTATT [XGTACX_site3149],9.21
11,ATGTTCCATTTTACTTGTACTAATTTTTTCCTATCT [XGTACX_site6474],9.64
12,TATATTATTTTCTTTTGTACACATATATATCAGTGT [XGTACX_site664],9.34
13,ACACATAATATAAAGGTGCTATATTGTATTCATTTT [GTGCAC_site9457],9.46
14,TGCAAAAAAAAAAAAAAAAAATATATGGAAATATAT [GTGCAC_negctrl_site257],8.96
15,TTTTCATACACTGCTAGTATATACTACCACTGACAT [GTGCAC_negctrl_site514],9.42
16,AAACATATATTAAGCACACACAAACAAAAAAACAAA [CACACA_site2549],10.1
17,ACATTGAACAAAATAGTAAGCACATATATATATATA [GTGCAC_negctrl_site679],9.37
18,TGATTCATTGATAAGGGTACATTTATAATTATGATA [XGTACX_site6319],9.02
19,ACGTATCAATTTATTGGTACACATAAATATATATAT [XGTACX_site5556],9.2
20,TACCAAAAAAAAAAAATAATAATAAAAAAAAAAAAA [TGCATGCA_negctrl_site11],9.14
21,AACGAAGCATAAAATGTTATGTATATATATAAATAT [TGCATGCA_negctrl_site304],9.33
22,ATCATTTTGTGTTCAAGTACATAATGTTTTACACAA [XGTACX_site3565],9.24

row,Sequence,gcPBM binding intensity (ln)
1,CATACATTATAAGATACATGCATATATCTGAACATA [TGCATGCA_site797],9.31
2,ATGTGGAAATAGAGCACACATATATATAATATATAT [CACACA_site884],9.46
3,TATTCATTAAACCATACACACATAATTTTTTTATAA [CACACA_site4618],9.46
4,ATATATTATATAAAAAGTACTAAAATAGTAAGATGT [XGTACX_site7493],9.65
5,AATGATTTTAAATGAACATAATTTATATTCATAACA [GTGCAC_negctrl_site256],8.94
6,GTGTGCCAAATTAGCACACACATATATACATGAATT [CACACA_site7346],9.58
7,AATTTTTGTTACAAGATGCACTTAATTTTTCTAAAT,9.07
8,AATAAAAATTCAAGTTGTACTTTTTTAAAAATACAA [XGTACX_site3949],8.89
9,AAAATGAATAAAAATACACACATATATGTTATTCTC [CACACA_site2671],9.45
10,AAATTGAGACAACAGGTGCATATAAATATACAGTGT [GTGCAC_site9634],9.63
11,CCAACATGCAGACGCACACACAAAAAAAGCATGCAT [CACACA_site74],9.57
12,AATAATATATATATTACACACTAATTGTATTATATA [CACACA_site448],9.37
13,TAACAATATCTAGATACACACACATATCTCTCAATC [CACACA_site8122],9.78
14,TTAATACCCGGACACACACACACAAAATAAAATACA [CACACA_site4296],10.2
15,ATTTATTTATTTAGCTGTACATTTATACAGAACGAT [XGTACX_site3336],9.1
16,TAACAATAACTTTATACACACATAATATAAATATAT [CACACA_site7635],9.61
17,TAAAATTTTAACAAAAAAAAAAAAAAAAAAAGAAAA [CACACA_negctrl_site1335],9.04
18,TACGTATTATAAATATGTACATATAATATGTATATA [XGTACX_site468],9.09
19,TATATCATCATGTATGTACACACATACATATATTAT [CACACA_site8387],9.56
20,ATAACAAAATAATAATGTACGTATAAATATAATTTA [XGTACX_site6049],9.42
21,ATAAAGAAAAATAGAAGTACATATATGCATGTTAAT [XGTACX_site4480],9.48
22,AACAATAAAAATAATTGTACAAGTCTAAAAAAAATT [XGTACX_site20],9.37
